Measured values as given in US20240173442A1, “COMBINATION THERAPY” (Hoffmann-La Roche Inc., priority 2021, published 2024).

Experiment: FACS staining using DOTA-FITC: recruitment of Pb-DOTA-FITC to MKN-45 cells by SPLIT antibodies
Format: binding
Conditions: antibodies 10 μg/mL, separate or combined, FIG. 24
Experimental: MKN-45 cells were detached from the culture bottle using Trypsin and were counted using a Casy cell counter. After pelleting at 4° C., 300 g the cells were resuspended in FACS Buffer (2.5% FCS in PBS), adjusted to 2.0E+06 cells/mL dispensed to 96-well PP V-bottom-Platte (25 μL/well=5.0E+04Zellen/well).
The CEA specific SPLIT antibodies (P1AF0712 or P1AF0713respectively) were adjusted to 40 μg/mL in FACS buffer, resulting in a final concentration of 10 μg/mL. Both antibodies were added to the cells either combined or separated and followed by buffer and incubated at 4° C. for 1 h. Subsequently, Pb-DOTA labeled with FITC was added to the cells in equimolar ratio to the antibodies and incubated for 1 h at 4° C. The cells were then washed twice in FACS buffer and resuspended in 70 μl/well FACS buffer for measurement using a FACS Canto (BD, Pharmingen). […] Only a combination of both SPLIT halves was able to recruit Pb-DOTAM-FITC to the target cells (FIG. 24).
EC50 was determined for the SPLIT antibodies using either secondary antibody based detection, (488, top panel) or Pb-DOTA-FITC (DOTA-FITC, bottom panel)

B1: P1AF0713: CEA CH1A1A SPLIT antibody with DOTA-VH-AST; SEQ ID NO: 100, 101, light chain 103 (antibody)
heavy 1: QVQLVQSGAEVKKPGASVKVSCKASGYTFTEFGMNWVRQAPGQGLEWMGWINTKTGEATYVEEFKGRVTFTTDTSTSTAYMELRSLRSDDTAVYYCARWDFAYYVEAMDYWGQGTTVTVSSASTKGPSVFPLAPSSKSTSGGTAALGCLVKDYFPEPVTVSWNSGALTSGVHTFPAVLQSSGLYSLSSVVTVPSSSLGTQTYICNVNHKPSNTKVDKKVEPKSCDKTHTCPPCPAPEAAGGPSVFLFPPKPKDTLMISRTPEVTCVVVDVSHEDPEVKFNWYVDGVEVHNAKTKPREEQYNSTYRVVSVLTVLHQDWLNGKEYKCKVSNKALGAPIEKTISKAKGQPREPQVCTLPPSRDELTKNQVSLSCAVKGFYPSDIAVEWESNGQPENNYKTTPPVLDSDGSFFLVSKLTVDKSRWQQGNVFSCSVMHEALHNHYTQKSLSLSPG
heavy 2: QVQLVQSGAEVKKPGASVKVSCKASGYTFTEFGMNWVRQAPGQGLEWMGWINTKTGEATYVEEFKGRVTFTTDTSTSTAYMELRSLRSDDTAVYYCARWDFAYYVEAMDYWGQGTTVTVSSASTKGPSVFPLAPSSKSTSGGTAALGCLVKDYFPEPVTVSWNSGALTSGVHTFPAVLQSSGLYSLSSVVTVPSSSLGTQTYICNVNHKPSNTKVDKKV[human IgG1 Fc with changes not listed]GGGGSGGGGSGGGGSGGGGSHVKLQESGPGLVQPSQSLSLTCTVSGFSLTDYGVHWVRQSPGKGLEWLGVIWSGGGTAYNTALISRLNIYRDNSKNQVFLEMNSLQAEDTAMYYCARRGSYPYNYFDAWGQGTTVTVSSAST
light: DIQMTQSPSSLSASVGDRVTITCKASAAVGTYVAWYQQKPGKAPKLLIYSASYRKRGVPSRFSGSGSGTDFTLTISSLQPEDFATYYCHQYYTYPLFTFGQGTKLEIKRTVAAPSVFIFPPSDEQLKSGTASVVCLLNNFYPREAKVQWKVDNALQSGNSQESVTEQDSKDSTYSLSSTLTLSKADYEKHKVYACEVTHQGLSSPVTKSFNRGEC
fluorescence signal of Pb-DOTA-FITC on MKN-45 cells: neither of the SPLIT halves was giving rise to a fluorescence signal
